The supplement of paper PMC4967469

Compound: O=C1NC(=NCc2cccs2)S/C1=C\c1ccc2ncccc2c1 [RO-3306]
Test: Viability of human cancer cell lines after 72 h of drug (GDSC screen)
Conditions: top dose 5 µM; top dose inferred
Description: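 Human cancer cell lines in 384-well plates, medium with 10% serum, drug for 72 h over a 256-fold dose range (nine 2-fold or five 4-fold steps up to the top dose). Adherent lines were fixed and stained with the nucleic acid dye Syto60, suspension lines read with resazurin; signal relative to control wells, capped at 0 and 100%. One two-parameter sigmoid per drug and line, fitted in a mixed model over all curves with the slope shared within a line.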

RCC10RGB (kidney, adherent)
AUC: 0.909 | IC50: > 5 µM

RCC-AB (kidney, adherent)
AUC: 0.943 | IC50: > 5 µM

RCC-ER (kidney, adherent)
AUC: 0.962 | IC50: > 5 µM

RCC-FG2 (kidney, adherent)
AUC: 0.967 | IC50: > 5 µM

RCC-JF (kidney, adherent)
AUC: 0.928 | IC50: > 5 µM

RCC-JW (kidney, adherent)
AUC: 0.978 | IC50: > 5 µM

RCC-MF (kidney, adherent)
AUC: 0.914 | IC50: > 5 µM

RCH-ACV (B-cell leukaemia, suspension)
AUC: 0.991 | IC50: > 5 µM

RCM-1 (large intestine, adherent)
AUC: 0.978 | IC50: > 5 µM

REH (B-cell leukaemia, suspension)
AUC: 0.984 | IC50: > 5 µM

RERF-GC-1B (stomach, adherent)
AUC: 0.954 | IC50: > 5 µM

RERF-LC-KJ (lung adenocarcinoma, adherent)
AUC: 0.939 | IC50: > 5 µM

RERF-LC-MS (lung adenocarcinoma, adherent)
AUC: 0.987 | IC50: > 5 µM

RERF-LC-Sq1 (lung squamous cell carcinoma, adherent)
AUC: 0.933 | IC50: > 5 µM

RF-48 (stomach, adherent)
AUC: 0.984 | IC50: > 5 µM

RH-1 (rhabdomyosarcoma, adherent)
AUC: 0.981 | IC50: > 5 µM

RH-18 (rhabdomyosarcoma, adherent)
AUC: 0.959 | IC50: > 5 µM

RH-41 (rhabdomyosarcoma, adherent)
AUC: 0.992 | IC50: > 5 µM

RKN (ovary, adherent)
AUC: 0.955 | IC50: > 5 µM

RL (B-cell lymphoma, suspension)
AUC: 0.99 | IC50: > 5 µM

RO82-W-1 (thyroid, adherent)
AUC: 0.979 | IC50: > 5 µM

ROS-50 (B-cell leukaemia, suspension)
AUC: 0.975 | IC50: > 5 µM

RPMI-2650 (head and neck, adherent)
AUC: 0.97 | IC50: > 5 µM

RPMI-6666 (Hodgkin lymphoma, suspension)
AUC: 0.982 | IC50: > 5 µM

RPMI-7951 (melanoma, adherent)
AUC: 0.923 | IC50: > 5 µM

RPMI-8226 (myeloma, suspension)
AUC: 0.982 | IC50: > 5 µM

RPMI-8402 (T-cell lymphoblastic leukaemia, suspension)
AUC: 0.984 | IC50: > 5 µM

RPMI-8866 (chronic myeloid leukaemia, suspension)
AUC: 0.97 | IC50: > 5 µM

RS4-11 (leukaemia, suspension)
AUC: 0.973 | IC50: > 5 µM

RT4 (bladder, adherent)
AUC: 0.986 | IC50: > 5 µM

RVH-421 (melanoma, adherent)
AUC: 0.975 | IC50: > 5 µM

RXF393 (kidney, adherent)
AUC: 0.937 | IC50: > 5 µM

Raji (Burkitt lymphoma, suspension)
AUC: 0.99 | IC50: > 5 µM

Ramos-2G6-4C10 (Burkitt lymphoma, suspension)
AUC: 0.984 | IC50: > 5 µM

SAS (head and neck, adherent)
AUC: 0.984 | IC50: > 5 µM

SAT (head and neck, adherent)
AUC: 0.855 | IC50: > 5 µM

SBC-1 (small cell lung carcinoma, suspension)
AUC: 0.989 | IC50: > 5 µM

SBC-3 (small cell lung carcinoma, adherent)
AUC: 0.916 | IC50: > 5 µM

SBC-5 (small cell lung carcinoma, adherent)
AUC: 0.993 | IC50: > 5 µM

SCC90 (head and neck, adherent)
AUC: 0.943 | IC50: > 5 µM

SCC-9 (head and neck, adherent)
AUC: 0.974 | IC50: > 5 µM

The IC50 comes from the fitted curve, where viability falls to half of the control; fits outside the tested doses are given as limits. The AUC spans the tested range (256-fold, ending at the top dose) of the same fit; it is 1 without any effect and falls as sensitivity rises. Any top dose called inferred was derived from the fitted curves, not read from the paper.
